The values that follow come from ChEMBL document CHEMBL4888484, “Replenishing the malaria drug discovery pipeline: Screening and hit evaluation of the MMV Hit Generation Library 1 (HGL1) against asexual blood stage Plasmodium falciparum ,using a nano luciferase reporter read-out” (2022).

Hit rate of the full screen: of about 150,000 compounds, about 540 (0.36%) showed an effect of 50% or more. Some of the results follow.

In the assay the test system is Plasmodium falciparum. Put plainly: Primary screen in NF54 nanoGlo assay, in single point, at 2uM, 72h; a lower Z score goes with more inhibition. The assay is classed as functional, Erythrocyte. The conditions noted are these: timepoint 72 hour.
What is called % Inhibition is the drop in the measured response relative to a control, in per cent. As to `CCc1cccc(Nc2nc3ccncc3n(C(C)C)c2=O)c1`, the “% Inhibition” value was 1% and the Z score was -0.13.
The corresponding values for `Cc1cccc(C(NC(=O)[C@@H]2CCCO2)C(F)(F)F)c1` (some centres undefined) are -6% and 0.81.
Taken in the same sequence, the figures for `CNC(=O)c1cccnc1N1CC[C@](C)(COC)C1` were -1% and 0.18.
The corresponding values for `Cc1cc(NC(=O)N2CCC=C(c3cn(C(C)C)nn3)CC2)n(C)n1` are -15% and 2.7.
In the case of `O=C(NCc1cccc(C(F)(F)F)n1)c1[nH]ccc1C1CC1`, the “% Inhibition” value was -4% and the Z score was determined as 0.54.
As for `C[C@@H]1CN(CC2CCCCO2)CC(C(N)=O)O1` (some centres undefined), the “% Inhibition” value is -13% and the Z score was 1.98.
The corresponding values for `CC[C@](C)(NC(=O)c1cc(C2CC2)n(C)n1)c1nccs1` are -3% and 0.58.
The corresponding values for `COCN1C(=O)CCc2cc(NCc3ccnn3C)ccc21` are -6% and 0.85.
Taken in the same sequence, the figures for `Cc1ccc(C(=O)N2CCNC(=O)[C@@H]2c2ccc(F)cc2)cc1OCCN` were -17% and 2.25.
As to `Cn1nccc1CNC(=O)C1CC1c1ccc(Cl)cc1Cl` (centres undefined), the “% Inhibition” value was -3% and the Z score was 0.46.
Turning to `COCCC(=O)N1C[C@@H](COc2cccnc2)[C@H](c2ccccn2)C1`, the “% Inhibition” value is on record as -6% and the Z score was 1.05.
Taken in the same sequence, the figures for `C[C@H]1CN(C(=O)Cc2ccon2)c2cc(F)c(F)cc2O1` were -8% and 0.85.
The corresponding values for `C[C@H](Nc1cccc2c1CCO2)c1cccnc1` are 37% and -2.09.
As for `CC(O)CNC(=O)CCC1CCCO1` (centres undefined), the “% Inhibition” value is -2% and the Z score was determined as 0.42.
Turning to `O=C(Nc1ccc2ncnn2c1)N1C[C@H]2CCC[C@H]2C1`, the “% Inhibition” value was -1% and the Z score was 0.18.
Taken in the same sequence, the figures for `Cc1ccc(N2CCN(C(=O)c3ccc4c(c3)CC(=O)N4C)CC2)cc1` were -5% and 0.57.
The corresponding values for `Cc1cccc(OCC(=O)c2ccc3c(c2)N(Cc2nc(C(=O)N4CCC(C)CC4)cs2)C(=O)CO3)c1` are -14% and 1.75.
In the case of `O=C(Cn1ncc(N2CCNCC2)cc1=O)N(Cc1ccccc1)C1CCCC1`, the “% Inhibition” value was -12% and the Z score was 1.58.
On to `c1ccc(CNc2cc(-n3ccnc3)ncn2)cc1`, for which the “% Inhibition” value was -3% and the Z score is listed as 0.34.
Taken in the same sequence, the figures for `CC(=O)Nc1ccc(CN[C@@H]2CO[C@H](CNC(=O)c3ccccc3)[C@H]2O)cc1` were -18% and 2.26.
For `c1cn2c(n1)CN(Cc1nnnn1C1CC1)CC2`, the “% Inhibition” value is -3% and the Z score is 0.46.
The corresponding values for `C=C(C)C[C@H](C)C(=O)N(CC)c1ccc(N2CCOCC2)cc1` are -11% and 0.94.
As to `Cn1nc(O)c2c1CN(C[C@H]1COc3ccccc3O1)CC2`, the “% Inhibition” value is -8% and the Z score came to 1.02.
For `CC(C)Oc1ccc(CN2CCn3c(nn(CC4CC4)c3=O)C2)cc1`, the “% Inhibition” value was -19% and the Z score is on record as 3.29.
Turning to `CC1(C)OC2C(CO)OC(n3cnc4c(NC(=O)c5ccccc5)ncnc43)C2O1` (centres undefined), the “% Inhibition” value is given as -33% and the Z score was 3.82.
Taken in the same sequence, the figures for `O=C([C@@H]1Cc2ccccc21)N1CCOC2(CCS(=O)(=O)CC2)C1` were -14% and 1.82.
The corresponding values for `CC(C)n1cnnc1CN1CCN(CC2CC2)[C@@H]2CS(=O)(=O)C[C@@H]21` are 5% and -0.76.
The corresponding values for `COc1ccccc1N1CCN(CC(=O)N2CCC[C@H](Oc3cc(C#N)ccn3)C2)C1=O` are -12% and 1.86.
As to `Cc1nc(NC2CCCCC2)sc1C(=O)Nc1ccc(F)cc1F`, the “% Inhibition” value was -7% and the Z score was 0.94.
Taken in the same sequence, the figures for `Cc1cc(C(=O)N2CCC(c3cc(N)on3)CC2)c(C)o1` were -12% and 1.89.
The corresponding values for `CCN1CCN(C(=O)c2nc(-c3ccccc3)nc3c2OCCO3)CC1` are -3% and 0.4.
Turning to `COc1ccc2c(c1)OC(C)(C)CN(Cc1ncccc1C(=O)O)C2`, the “% Inhibition” value amounted to 2% and the Z score is -0.24.
The corresponding values for `COc1c(F)ccc(-c2cn(Cc3c(C)noc3C)nn2)c1F` are -11% and 1.65.
Taken in the same sequence, the figures for `COCCN1CC[C@H](C(=O)Nc2ccc(N3CCCC3)c3ncccc23)C1` were -15% and 1.74.
The corresponding values for `Cc1cnc(N2C[C@@H]3OC(=O)N(CCCN4CCOCC4)[C@@H]3C2)nc1N` are -14% and 2.76.
Regarding `COCCNc1nc(-c2cccc(Cl)c2)c2c(N)n(-c3cccc(C)c3)nc2n1`, the “% Inhibition” value is recorded as -5% and the Z score turned out to be 0.69.
Consider `CCc1c(C)nn(CCNc2ncnc3c2c(C)nn3C)c1C`, for which the “% Inhibition” value is on record as -12% and the Z score was 2.4.
For `CCN(C[C@H]1CCOC1)C(=O)Cn1c(=O)n(C)c2ccccc21`, the “% Inhibition” value came to 8% and the Z score was -1.29.
For the molecule `CCc1nnsc1C(=O)N1CCc2[nH]nc(-c3cccc(OC)c3)c2C1`, the “% Inhibition” value is -15% and the Z score came out at 1.42.
As to `CC(C)C[C@H]1C(=O)NC(c2cc3n(n2)CCC3)N1C` (some centres undefined), the “% Inhibition” value was -13% and the Z score amounted to 2.01.
Turning to `CCC(C)N(CC1CN(C(=O)c2cccs2)CCO1)C(=O)c1ccccc1OC` (centres undefined), the “% Inhibition” value is on record as -4% and the Z score is on record as 0.63.
The corresponding values for `CC(CN1CCN(c2ccccc2)CC1)NC(=O)C1CCCCN1C` (centres undefined) are 8% and -1.06.
